Laboratory results from the supplement of paper PMC4967469.
By IC50 is meant the dose at which the fit gives 50% viability; where the fit passes the top or lowest dose, that dose stands as a limit. AUC sums up the same curve from the lowest dose to the 256-fold higher top dose; the more sensitive the line, the further below 1. A top dose marked as inferred comes from the curve model; the source does not state it.

These cell lines were tested with CC1=C(C(=O)Nc2cc3cn[nH]c3cc2F)C(c2ccc(C(F)(F)F)cc2)CC(=O)N1 [GSK429286A] (assay: Viability of human cancer cell lines after 72 h of drug (GDSC screen)). Settings: top dose inferred.
Method: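 Human cancer cell lines in 384-well plates, medium with 10% serum, drug for 72 h over a 256-fold dose range (nine 2-fold or five 4-fold steps up to the top dose). Adherent lines were fixed and stained with the nucleic acid dye Syto60, suspension lines read with resazurin; signal relative to control wells, capped at 0 and 100%. One two-parameter sigmoid per drug and line, fitted in a mixed model over all curves with the slope shared within a line.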

Row | Cell Line | AUC | IC50
1 | FU-OV-1 (ovary, adherent, top dose 20 µM) | 0.982 | > 20 µM
2 | EB-3 (Burkitt lymphoma, suspension, top dose 20 µM) | 0.957 | > 20 µM
3 | NCI-H69 (small cell lung carcinoma, suspension, top dose 20 µM) | 0.961 | > 20 µM
4 | TE-11 (oesophagus, adherent, top dose 20 µM) | 0.988 | > 20 µM
5 | COR-L23 (large cell lung carcinoma, adherent, top dose 20 µM) | 0.942 | > 20 µM
6 | NCI-H2171 (small cell lung carcinoma, suspension, top dose 20 µM) | 0.97 | > 20 µM
7 | HCC1419 (breast, adherent, top dose 20 µM) | 0.967 | > 20 µM
8 | STS-0421 (soft tissue, adherent, top dose 20 µM) | 0.837 | 16.7 µM
9 | NCI-H2023 (lung adenocarcinoma, adherent, top dose 20 µM) | 0.981 | > 20 µM
10 | SKN-3 (head and neck, adherent, top dose 20 µM) | 0.97 | > 20 µM
11 | DBTRG-05MG (glioma, adherent, top dose 20 µM) | 0.973 | > 20 µM
12 | KP-4 (pancreas, adherent, top dose 20 µM) | 0.928 | > 20 µM
13 | DEL (lymphoid neoplasm, suspension, top dose 20 µM) | 0.964 | > 20 µM
14 | ALL-SIL (T-cell leukaemia, suspension, top dose 20 µM) | 0.91 | > 20 µM
15 | SNU-175 (large intestine, suspension, top dose 20 µM) | 0.985 | > 20 µM
16 | ML-1 (thyroid, adherent, top dose 20 µM) | 0.974 | > 20 µM
17 | MOLT-4 (lymphoblastic leukaemia, suspension, top dose 20 µM) | 0.884 | 14.7 µM
18 | H2722 (mesothelioma, adherent, top dose 20 µM) | 0.896 | > 20 µM
19 | SW1463 (large intestine, adherent, top dose 20 µM) | 0.978 | > 20 µM
20 | BHT-101 (thyroid, adherent, top dose 20 µM) | 0.965 | > 20 µM
21 | NCI-H1793 (lung adenocarcinoma, adherent, top dose 20 µM) | 0.98 | > 20 µM
22 | CCK-81 (large intestine, adherent, top dose 20 µM) | 0.99 | > 20 µM
23 | MEG-01 (chronic myeloid leukaemia, suspension, top dose 20 µM) | 0.955 | > 20 µM
24 | A704 (kidney, adherent, top dose 20 µM) | 0.882 | > 20 µM
25 | Hs940-T (melanoma, adherent, top dose 20 µM) | 0.89 | > 20 µM
26 | SH-4 (melanoma, adherent, top dose 20 µM) | 0.955 | > 20 µM
27 | OVMIU (ovary, adherent, top dose 20 µM) | 0.981 | > 20 µM

Row | Cell Line | AUC | IC50
28 | SCC-15 (head and neck, adherent, top dose 20 µM) | 0.98 | > 20 µM
29 | CW-2 (large intestine, adherent, top dose 20 µM) | 0.965 | > 20 µM
30 | KYSE-510 (oesophagus, adherent, top dose 20 µM) | 0.986 | > 20 µM
31 | L-428 (Hodgkin lymphoma, suspension, top dose 20 µM) | 0.989 | > 20 µM
32 | SHP-77 (small cell lung carcinoma, semi-adherent, top dose 20 µM) | 0.937 | > 20 µM
33 | OVCAR-8 (ovary, adherent, top dose 20 µM) | 0.975 | > 20 µM
34 | VAL (B-cell lymphoma, suspension, top dose 20 µM) | 0.861 | 17 µM
35 | DK-MG (glioma, adherent, top dose 20 µM) | 0.956 | > 20 µM
36 | DMS-273 (small cell lung carcinoma, adherent, top dose 20 µM) | 0.984 | > 20 µM
37 | LN-229 (glioma, adherent, top dose 20 µM) | 0.983 | > 20 µM
38 | Capan-2 (pancreas, adherent, top dose 20 µM) | 0.985 | > 20 µM
39 | NAMALWA (Burkitt lymphoma, suspension, top dose 20 µM) | 0.962 | > 20 µM
40 | BV-173 (chronic myeloid leukaemia, suspension, top dose 20 µM) | 0.926 | > 20 µM
41 | COLO-678 (large intestine, semi-adherent, top dose 20 µM) | 0.982 | > 20 µM
42 | SCC-9 (head and neck, adherent, top dose 20 µM) | 0.981 | > 20 µM
43 | BE-13 (lymphoblastic leukaemia, suspension, top dose 20 µM) | 0.775 | 7.37 µM
44 | U031 (kidney, adherent, top dose 20 µM) | 0.85 | 16 µM
45 | SK-HEP-1 (liver, adherent, top dose 20 µM) | 0.989 | > 20 µM
46 | CAL-51 (breast, adherent, top dose 20 µM) | 0.983 | > 20 µM
47 | CMK (acute myeloid leukaemia, suspension, top dose 20 µM) | 0.875 | 14.6 µM
48 | MKN1 (stomach, adherent, top dose 20 µM) | 0.954 | > 20 µM
49 | D-263MG (glioma, adherent, top dose 20 µM) | 0.972 | > 20 µM
50 | MMAC-SF (melanoma, adherent, top dose 20 µM) | 0.974 | > 20 µM
51 | SK-LMS-1 (soft tissue, adherent, top dose 20 µM) | 0.897 | > 20 µM
52 | BB49-HNC (head and neck, adherent, top dose 20 µM) | 0.944 | > 20 µM
53 | NCI-H1915 (large cell lung carcinoma, adherent, top dose 20 µM) | 0.965 | > 20 µM
54 | CHSA0011 (chondrosarcoma, adherent, top dose 20 µM) | 0.944 | > 20 µM

Row | Cell Line | AUC | IC50
55 | RCC-AB (kidney, adherent, top dose 20 µM) | 0.968 | > 20 µM
56 | LOUCY (T-cell lymphoblastic leukaemia, suspension, top dose 20 µM) | 0.768 | 6.18 µM
57 | HA7-RCC (kidney, adherent, top dose 20 µM) | 0.976 | > 20 µM
58 | CHSA8926 (chondrosarcoma, adherent, top dose 20 µM) | 0.807 | 16 µM
59 | OACM5-1 (oesophagus, semi-adherent, top dose 20 µM) | 0.92 | > 20 µM
60 | NCI-H2135 (non-small cell lung carcinoma, adherent, top dose 20 µM) | 0.99 | > 20 µM
61 | NB6 (neuroblastoma, adherent, top dose 20 µM) | 0.854 | > 20 µM
62 | H2591 (mesothelioma, adherent, top dose 20 µM) | 0.943 | > 20 µM
63 | NCI-H446 (small cell lung carcinoma, semi-adherent, top dose 20 µM) | 0.97 | > 20 µM
64 | HT-115 (large intestine, adherent, top dose 20 µM) | 0.973 | > 20 µM
65 | SW1417 (large intestine, adherent, top dose 20 µM) | 0.986 | > 20 µM
66 | MHH-NB-11 (neuroblastoma, adherent, top dose 20 µM) | 0.82 | 13 µM
67 | SU-DHL-5 (B-cell lymphoma, suspension, top dose 20 µM) | 0.928 | 18.5 µM
68 | GAMG (glioma, adherent, top dose 20 µM) | 0.965 | > 20 µM
69 | SNB75 (glioma, adherent, top dose 20 µM) | 0.932 | > 20 µM
70 | HDQ-P1 (breast, adherent, top dose 20 µM) | 0.983 | > 20 µM
71 | LB996-RCC (kidney, adherent, top dose 20 µM) | 0.978 | > 20 µM
72 | LS-123 (large intestine, adherent, top dose 20 µM) | 0.975 | > 20 µM
73 | PANC-10-05 (pancreas, adherent, top dose 20 µM) | 0.982 | > 20 µM
74 | RPMI-8402 (T-cell lymphoblastic leukaemia, suspension, top dose 20 µM) | 0.744 | 5.42 µM
75 | SKN (uterus, adherent, top dose 20 µM) | 0.961 | > 20 µM
76 | DU-145 (prostate, adherent, top dose 20 µM) | 0.98 | > 20 µM
77 | ASH-3 (thyroid, adherent, top dose 20 µM) | 0.988 | > 20 µM
78 | JiyoyeP-2003 (Burkitt lymphoma, suspension, top dose 20 µM) | 0.978 | > 20 µM
79 | KP-1N (pancreas, adherent, top dose 10.24 µM) | 0.971 | > 10.2 µM
80 | NCI-H1417 (small cell lung carcinoma, suspension, top dose 20 µM) | 0.83 | 16 µM
